# “And” between values parts separate entries of the source, which are not always exact repeats. Equal values may be shown once. Screen size: about 280,000 compounds; about 1,100 (0.39%) were called active. This list was built around the results that the source calls inconclusive (neither active nor inactive); the mix of calls is not that of the screen. Calls follow the shape of the dose curve; as a rule, active = well fitted inhibition curve with a large enough effect; inconclusive = small, poorly fitted or top-dose-only effect, or effect the other way; inactive = flat fitted curve, though single readings scatter. Potencies of inconclusive entries are doubtful fits and often do not repeat.
# Target: Microtubule-associated protein tau (Homo sapiens) (UniProt P10636)
# Test: qHTS for Inhibitors of Tau Fibril Formation, Fluorescence Polarization; also: nearly all actives have a fitted effect of over 55% in size
# Details: K18 P301L tau heparin fibrillization, Alexa594 FP, 6 h; series mostly up to 57.7 µM
# Summary of the method: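 Read-out: fluorescence polarization of Alexa 594-labeled tau (0.24 uM), 555 nm excitation, 632 nm emission. Mixtures held 15 uM unlabeled K18 P301L, compound and 20 uM heparin, pH 7 acetate buffer, incubated 6 hr at 37 C.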
# Potency is read from the fitted curve at half-maximal effect; tags tell the direction and shape of the fitted curve.
# UniProt P10636, sequence (P10636 whole entry, looked up): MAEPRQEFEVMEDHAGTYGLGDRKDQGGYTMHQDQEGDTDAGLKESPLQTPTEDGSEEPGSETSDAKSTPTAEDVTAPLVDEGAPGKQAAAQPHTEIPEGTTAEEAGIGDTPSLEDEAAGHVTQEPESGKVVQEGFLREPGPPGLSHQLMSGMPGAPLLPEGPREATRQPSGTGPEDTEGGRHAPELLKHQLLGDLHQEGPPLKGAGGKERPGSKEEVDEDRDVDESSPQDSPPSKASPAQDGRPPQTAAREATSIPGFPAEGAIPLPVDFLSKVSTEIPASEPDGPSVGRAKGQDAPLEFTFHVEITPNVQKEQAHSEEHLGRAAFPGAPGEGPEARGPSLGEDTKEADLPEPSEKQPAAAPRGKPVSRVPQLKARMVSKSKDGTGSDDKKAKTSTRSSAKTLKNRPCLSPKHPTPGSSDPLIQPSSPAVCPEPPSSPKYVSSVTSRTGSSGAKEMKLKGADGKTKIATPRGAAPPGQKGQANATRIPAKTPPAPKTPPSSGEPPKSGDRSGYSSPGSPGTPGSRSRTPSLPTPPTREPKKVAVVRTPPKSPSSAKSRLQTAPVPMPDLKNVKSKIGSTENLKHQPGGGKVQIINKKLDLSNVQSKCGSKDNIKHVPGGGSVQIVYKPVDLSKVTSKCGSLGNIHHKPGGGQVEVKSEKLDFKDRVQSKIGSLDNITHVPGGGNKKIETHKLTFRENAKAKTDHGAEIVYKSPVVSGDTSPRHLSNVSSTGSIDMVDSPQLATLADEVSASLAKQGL
row,SMILES,Potency
1,CCOC(=O)C1=C(c2ccccc2)NC(SCC(=O)Nc2cccc(C)c2)=C(C#N)C1c1ccco1 (stereo not given),"inconclusive: 22.4 µM [inhibitor, partial curve]"
2,CC(=O)Nc1c(C(=O)Nc2cccc(C)c2)nnn1-c1ccc(C)cc1,"inconclusive: 39.8 µM [inhibitor, single point]"
3,O=[N+]([O-])c1nn(-c2ccc3c(c2)OCCO3)n(O)c1=NC1CCCCC1,inactive
4,COc1ccc(NC(=O)c2oc3ccc(S(=O)(=O)N(C)C4CCCCC4)cc3c2C)cc1Cl,"inconclusive: 44.7 µM [inhibitor, single point]"
5,Cc1ccc(-n2nc(-c3ccc(F)cc3)c3cnc4cc5c(cc4c32)OCO5)cc1C,inactive
6,CO[C@H]1COC(=O)C/C=C\[C@H](C)[C@@H](OC)COC(=O)C/C=C\[C@@H]1C,"inconclusive: 3.98 µM [inhibitor, single point]"
7,CCN(CC)S(=O)(=O)c1ccc(NC(=O)c2ccc(Cl)nc2)cc1,inactive
8,O=C(CN1C(=O)c2ccccc2C1=O)Nc1cccc(S(=O)(=O)Nc2ccccc2Cl)c1,"inconclusive: 15.8 µM [inhibitor, single point]"
9,CC(=O)c1cccc(NC(=O)CSc2ccc(-c3ccc4c(c3)OCO4)nn2)c1,"inconclusive: 44.7 µM [inhibitor, single point]"
10,CCCCNc1nc2c(c(=O)n(C)c(=O)n2C)n1Cc1cccc(OC)c1,"inconclusive: 15.8 µM [activator, partial curve, poor fit]"
11,Cc1cc(Br)c(Cl)cc1NC(=O)CN1C(=O)C2C3CC(c4ccccc4)C(C3)C2C1=O (stereo not given),"inconclusive: 15.8 µM [inhibitor, partial curve]"
12,CC(=O)c1ccc(N2CCN(c3ccc(S(=O)(=O)NCCCN(C)C)cc3[N+](=O)[O-])CC2)cc1,inactive
13,CCN(C(=O)CN(C)S(=O)(=O)c1ccc2c(c1)n(C)c(=O)c(=O)n2C)c1cccc(C)c1,inactive
14,CC(C)CCn1c(N)c(S(=O)(=O)c2cccs2)c2nc3ccccc3nc21,"inconclusive: 39.8 µM [inhibitor, single point]"
15,COc1cccc(NC(=O)Cn2c(=O)n(-c3cccc(OC)c3)c(=O)c3c4c(sc32)CCCC4)c1,"inconclusive: 3.98 µM [inhibitor, full curve]"
16,CCSCCc1nnc(NC(=O)Nc2cccc(C(F)(F)F)c2)s1,active: 11.2 µM
17,CC(=O)c1ccc(NC(=O)Cn2c3ncccc3c(=O)n2-c2ccc(C)cc2)cc1,"inconclusive: 3.55 µM [inhibitor, full curve]"
18,COc1ccc(NC(=O)c2cnc(SCC(=O)Nc3nc4ccc(C)cc4s3)n(C)c2=O)cc1,"inconclusive: 5.62 µM [inhibitor, full curve, poor fit]"
19,COc1ccccc1Nc1nc(C)cs1,"inconclusive: 25.1 µM [inhibitor, single point]"
20,Fc1cccc(CSc2nnc3c(n2)[nH]c2ccccc23)c1,"inconclusive: 44.7 µM [inhibitor, single point]"
21,CC(C(=O)NNS(=O)(=O)c1cccc(C(F)(F)F)c1)n1nnc(N2CCOCC2)n1 (stereo not given),inactive
22,O=C(CCS(=O)(=O)c1cccc2nonc12)NCc1ccc(Cl)cc1,inactive

row,SMILES,Potency
1,Cc1ccc(S(=O)(=O)N2CC=C(c3c(C)n(C)c4ccccc34)CC2)cc1,"inconclusive: 17.8 µM [activator, partial curve, poor fit]"
2,CCN(CC)S(=O)(=O)c1ccc(NC(=O)c2cc3ccc4cccnc4c3[nH]2)cc1,"inconclusive: 17.8 µM [inhibitor, partial curve]"
3,Cc1cccc(Nc2nnc(SCC(=O)NC(=O)Nc3ccc4c(c3)OCCO4)s2)c1,"inconclusive: 39.8 µM [inhibitor, single point]"
4,Cc1cccc(NCc2ccccc2O)c1C,inactive
5,COc1ccccc1NC(=O)CSc1nc(O)c(C/C=C/c2ccccc2)c(=O)[nH]1,inactive
6,COc1ccc(OC)c(/C=C/C(=O)Nc2ccc3c(c2)CCC3)c1,"inconclusive: 20 µM [inhibitor, partial curve, poor fit]"
7,Cn1c(=O)c2c(nc(NCCc3ccccc3)n2Cc2ccccc2)n(C)c1=O,"inconclusive: 8.91 µM [activator, partial curve]"
8,COc1ccc(N(Cc2ccccc2)S(=O)(=O)c2cccc(C(=O)NC3=NCCS3)c2)cc1,"inconclusive: 25.1 µM [inhibitor, partial curve]"
9,O=S(=O)(c1cccc(C(F)(F)F)c1)N(CCCN1CCOCC1)Cc1cccs1,inactive
10,C(=C\c1ccco1)/c1ccc2ccccc2n1,"inconclusive: 14.1 µM [inhibitor, partial curve]"
11,O=C(NC(=S)Nc1ccc2c(c1)OCCO2)c1cccc(Br)c1,"inconclusive: 22.4 µM [inhibitor, single point]"
12,O=C(COc1ncnc2ccc(Br)cc12)Nc1ccc(N2CCOCC2)cc1,inactive
13,CC(=O)OCC1OC(C#Cc2ccccc2)C=CC1OC(C)=O (stereo not given),"inconclusive: 7.94 µM [inhibitor, single point]"
14,COc1ccc(COC(=O)N/N=C2/C[C@@H](O)[C@@H](O)[C@@H]3[C@@H]4C(=O)N([C@@H](C)c5ccccc5)C(=O)[C@H]4CC[C@@H]23)cc1,"inconclusive: 0.891 µM [inhibitor, single point]"
15,O=[N+]([O-])c1cc(Br)c(O)c(C=Nc2ccc(N3CCOCC3)cc2)c1,inactive
16,O=C(CSc1nc(=O)[nH]c2c1CCCC2)Nc1ccc(Cl)c(Cl)c1,"inconclusive: 39.8 µM [inhibitor, single point]"
17,CC(C)Cn1c2c(c(O)c(C(=O)Nc3ccc(F)cc3)c1=O)CCCC2,inactive
18,O=[N+]([O-])c1cccc(-c2ccc(C(=S)N3CCN(c4ccccc4)CC3)o2)c1,"inconclusive: 44.7 µM [inhibitor, single point]"
19,COC(=O)Cn1c(=NC(=O)c2ccc3c(c2)OCCO3)sc2ccccc21,"inconclusive: 14.1 µM [inhibitor, partial curve]"
20,Cn1c(=N)n(CC(=O)C(C)(C)C)c2ccccc21,inactive
21,CCCCNC(=O)/C(C#N)=c1\s/c(=C\c2ccccc2OC(F)F)c(=O)n1CCCOC,inactive
22,COc1cc(C2CC(=O)N3CN(Cc4ccco4)CSC3=C2C#N)ccc1OCc1ccccc1 (stereo not given),"inconclusive: 31.6 µM [inhibitor, partial curve]"

row,SMILES,Potency
1,O=C(CCCC(=O)NCC1CCCO1)NCC1CCCO1 (stereo not given),inactive
2,Cc1ccc2oc(C(=O)Nc3ccc(S(=O)(=O)N4CCCC(C)C4)cc3)cc(=O)c2c1 (stereo not given),"inconclusive: 11.2 µM [inhibitor, partial curve]"
3,CCN(CC)CCn1c(=O)n(-c2ccc(Cl)cc2)c(=O)c2c3c(sc21)CN(C)CC3,"inconclusive: 15.8 µM [inhibitor, partial curve]"
4,Cc1ccc2cc3cc(C(=O)N4CCN(c5ccc(Cl)cc5)CC4)oc3nc2c1,inactive
5,CCC(=O)Nc1ccc(CC)cc1-c1nc2ccccc2n(CC(=O)Nc2cccc(OC)c2)c1=O,"inconclusive: 39.8 µM [inhibitor, single point]"
6,CCOC(=O)C1(Cc2cccc(Cl)c2)CCCN(C2CCN(C(C)=O)CC2)C1 (stereo not given),inactive
7,Cc1cc(C)n(Cc2cc(C(=O)O)c3ccccc3n2)n1,"inconclusive: 44.7 µM [inhibitor, single point]"
8,O=C(Nc1ccc(Cl)cc1)Nc1ccccc1Sc1ncc([N+](=O)[O-])s1,"inconclusive: 12.6 µM [inhibitor, partial curve]"
9,Cc1c(C(=O)OCC(=O)Nc2cccc(S(N)(=O)=O)c2)oc2c1ccc1ccccc12,"inconclusive: 14.1 µM [inhibitor, partial curve]"
10,COC(=O)c1ccccc1NC(=S)N(Cc1ccc2c(c1)OCO2)Cc1cc2cc(OC)ccc2[nH]c1=O,"inconclusive: 28.2 µM [inhibitor, partial curve]"
11,CCOC(=O)c1c(C)oc2ccc(NS(=O)(=O)c3cccs3)cc12,"inconclusive: 2.51 µM [inhibitor, partial curve, poor fit]"
12,Cc1ccc(C)c(NC(=S)NCCSc2ccc(Cl)cc2)c1,inactive
13,CC1CC(C)CN(S(=O)(=O)c2ccc(NC(=O)C3COc4ccccc4O3)cc2)C1 (stereo not given),"inconclusive: 28.2 µM [inhibitor, partial curve, poor fit]"
14,CCC(C)Oc1cc(-c2ccnc(Nc3cccc(Cl)c3)n2)ccn1 (stereo not given),"inconclusive: 25.1 µM [inhibitor, partial curve, poor fit]"
15,CN(C)S(=O)(=O)c1ccc(-c2csc(N/N=C/c3ccco3)n2)cc1,inactive
16,Cc1ccc(S(=O)(=O)n2nc(-c3ccc(Cl)cc3)nc2NCc2ccccc2)cc1,"inconclusive: 15.8 µM [inhibitor, partial curve]"
17,COc1ccc(COc2cc(-c3cccc(OC)c3)nc3ccc(NC(C)=O)cc23)cc1,"inconclusive: 14.1 µM [inhibitor, partial curve] and inconclusive: 11.2 µM [inhibitor, partial curve]"
18,O=C(CN1CCOCC1)Nc1nc2ccc(Br)cc2s1,"inconclusive: 1.58 µM [inhibitor, partial curve, poor fit]"
19,COc1ccc(S(=O)(=O)N2CCc3ccccc32)cc1C(=O)OCc1c(C)noc1C,inactive
20,CCCCN(CC)C(=O)CSc1nc2n[nH]c(C)c2c(=N)n1-c1cccc(C)c1,"inconclusive: 12.6 µM [activator, partial curve]"
21,CSc1cccc(NC(=O)c2nnn(Cc3ccccc3)c2N)c1,"inconclusive: 14.1 µM [inhibitor, partial curve]"
